Data: patent US20260167677A1, “ANTI-ADAM10 ANTIBODIES AND USES IN TREATMENT OF CANCER” (Memorial Sloan Kettering Cancer Center, priority 2022, published 2026)

How the values were obtained:
[1] = biological target: T1, bovine (b) ADAM10 D+C (Bos taurus, UniProt Q10741); assay: ELISA, 1H5 IgG binding to immobilized bovine ADAM10 D+C; settings: FIG. 2 Panel E
T1 construct: the D+C domains (455-646) were cloned, expressed and purified from HEK293 cells; Fc-tag (C, cleaved yes); made in house; host or cells: HEK293 cells
T1 sequence (Q10741 455-646): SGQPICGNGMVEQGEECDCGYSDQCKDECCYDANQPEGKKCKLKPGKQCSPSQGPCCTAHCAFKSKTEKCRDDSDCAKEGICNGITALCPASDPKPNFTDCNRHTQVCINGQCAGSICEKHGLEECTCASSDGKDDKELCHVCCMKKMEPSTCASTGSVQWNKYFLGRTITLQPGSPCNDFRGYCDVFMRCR
From the text: (§1) Panels A-C show characterization of the fully human 1H5 Fab. […] [Lane 1: Low molecular weight standards (Bio-Rad). Lane 2: bead bound murine 8C7 immunoglobulin G (IgG)+ADAM10 D+C. […] Lane 4: bead bound ADAM10 D+C without any pre-bound mAb. Lane 5: ADAM10 D-f-C input]

[2] = biological target: T2, human ADAM17 D+C (Homo sapiens, UniProt P78536); assay: ELISA, 1H5 IgG binding to human ADAM17 D+C; settings: FIG. 2 Panel E
T2 construct: the human ADAM17 D+C (482-648); Fc-tag (human); made in house; host or cells: baculovirus-infected Hi5 insect cells
T2 sequence (P78536 482-648): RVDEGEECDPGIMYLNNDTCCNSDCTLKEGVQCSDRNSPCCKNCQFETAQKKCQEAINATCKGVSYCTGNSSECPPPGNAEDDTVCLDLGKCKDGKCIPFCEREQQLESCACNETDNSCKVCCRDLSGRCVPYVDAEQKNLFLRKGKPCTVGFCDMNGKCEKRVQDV
From the text: as §1

[3] = test system: HTC116; assay: Alamar blue cell viability assay, HTC116; assay type: cell-based, human
Method: For the Alamar blue cell viability assays, the cells were harvested in the log phase of growth (after 3 days of culturing). The cell count was determined and was adjusted to 5×10^4 cells/ml. […] The cells were allowed to grow for an additional 38 hours. Cells not treated with 1H5 were used as a control. Alamar Blue (10% of the well volume) was added aseptically. Cultures containing Alamar Blue were incubated for 6 hours, and cell proliferation was measured spectrophotometrically by absorbance at 570 and 600 nm. Cell viability was calculated using the following formula:
O1=molar extinction coefficient (E) of oxidized alamarBlue® (Blue) at 570 nm, O2=E of oxidized alamarBlue® at 600 nm, A1=absorbance of test wells at 570 nm, A2=absorbance of test wells at 600 nm, P1=absorbance of positive growth control well (cells plus AamarBlue® but no test agent) at 570 nm, P2=absorbance of positive growth control well (cells plus AlamarBlue® but no test agent) at 600 nm (O'Brien et al., 2000).

[4] = test system: xenografted COLO205 cells; assay: Mouse model of CRC using xenografted COLO205 cells; assay type: in vivo
Method: For the mouse model, COLO205 cells were grown in monolayer culture, harvested by trypsinization, and implanted subcutaneously into the right flank of 6- to 8-week-old female athymic nude mice. Approximately 10 million cells were injected per mouse. Mice were randomized into 4 groups (each n=4).
Tumor volume was determined by external caliper and calculated by the modified ellipsoidal formula: V=½(Length×Width^2). Antitumor efficacy was calculated as (1-dT/dC)[…], where dT is the final tumor volume minus the starting tumor volume from the treatment group, and dC is the final tumor volume minus the starting tumor volume of the control group (Rios-Doria et al., 2015). Error bars were calculated as SEM. The mouse body weight and general health were monitored daily.
In a second study, 1H5 at two different doses was used in the mouse model. For the mouse model, approximately five million cells were implanted (subcutaneous with Matrigel) into 6- to 8-week-old female athymic nude mice. Mice were randomized into 3 groups (each n=5).

[5] = test system: human and mouse ADAM10; assay: ELISA-based assays, human and mouse ADAM10 (data not shown); assay type: binding
[6] = test system: Notch1 in COLO205 cells; assay: Sandwich ELISA of total and cleaved Notch1 in COLO205 cells; assay type: cell-based, human; settings: COLO205, 5 μg/ml, 10, 18 and 36 hours
Method: Ligand-activated Notch signaling requires sequential cleavage of Notch by ADAM10 (which is the α-secretase for Notch) and by γ-secretase, releasing the Notch intracellular domain (NICD) in the cytoplasm (Hartmann et al., 2002).
The COLO205 cells were harvested in the log phase of growth (after 3 days of culturing), adjusted to 5×10^4 cells/ml, and allowed to adhere and grow for 24 hours in six-well cell culture plates (Greiner bio-one). […] The PathScan® total Notch1 sandwich ELISA kit was used to measure total Notch1 according to the manufacturer's protocol (Cell Signaling Technologies). Briefly, the cells harvested at different time points were resuspended in 1X lysis buffer containing 1 mM PMSF, sonicated on ice and centrifuged for 10 min (×14,000 rpm) at 4° C. The supernatant, which is the cell lysate, was used for further study, 100 μl of the lysates (diluted to 1 mg/ml) from the different time intervals was added to the microwells (in quadruplicate) coated with a Notch1 rat antibody. This antibody captures the total Notch1 (cleaved plus uncleaved) from the lysates. After extensive washing, a Notch1 rabbit antibody was added to detect the total captured Notch1 protein. To detect Notch intracellular domain (NICD1), PathScan® cleaved Notch1 (Val1744) sandwich ELISA Kit (Cell Signaling Technologies) was used. […] The data was recorded at 450 nm. […]

B1: 1H5: fully human anti-ADAM10 antibody clone; heavy chain SEQ ID NO: 14, light chain SEQ ID NO: 15 (antibody)
heavy: QVQLVESGGGLVKPGGSLRLSCAASGFTFSDYYMSWIRQAPGKGLEWVSYISSSGSTIYYADSVKGRFTISRDNAKNSLYLQMNSLRAEDTAVYYCARDFYDSKIFDYWGQGTLVTVSS[human IgG1 constant region left out]
light: DIQMTQSPSSLSASVGDRVTITCRASQSISSYLNWYQQKPGKAPKLLIYAASSLQSGVPSRFSGSGSGTDFTLTISSLQPEDVGVYYCMEGLKTPFTFGPGTKLEIKRTVAAPSVFIFPPSDEQLKSGTASVVCLLNNFYPREAKVQWKVDNALQSGNSQESVTEQDSKDSTYSLSSTLTLSKADYEKHKVYACEVTHQGLSSPVTKSFNRGEC
**Q.** With B1 as the molecule, how does the “binding to immobilized bovine ADAM10 D+C” value [1] read?
**A.** binds specifically

**Q.** What about the “binding to human ADAM17 D+C” value [2] of the same molecule?
**A.** but not to

**Q.** What about the “growth of colon cancer cell line” value [3] of the same molecule?
**A.** inhibited growth

**Q.** And the “toxicity (mouse weight, visible diarrhea)” value ([4]; first study)?
**A.** no toxicity effects in animals

**Q.** What about the tumor growth inhibition ([4]; first study, 1H5 30 mg/kg i.p. biweekly, irinotecan 20 mg/kg i.p. once a week) of the same molecule?
**A.** 54%

**Q.** What about the “tumor growth inhibitory effect” value ([4]; second study, 10 mg/kg i.p. biweekly) of the same molecule?
**A.** 26%

**Q.** What about the “tumor growth inhibitory effect” value ([4]; second study, 20 mg/kg i.p. biweekly) of the same molecule?
**A.** 64%

**Q.** What about the “weight of the mice” value ([4]; second study, both doses (10 and 20 mg/kg)) of the same molecule?
**A.** did not affect the weight of the mice

**Q.** What about the “binding to human versus mouse ADAM10” value [5] of the same molecule?
**A.** binding equally well to human and mouse ADAM10

**Q.** What about the “cleaved notch levels versus untreated control” value [6] of the same molecule?
**A.** significant decrease

**Q.** What about the “total notch levels versus untreated control” value [6] of the same molecule?
**A.** did not significantly differ
